ChEMBL document CHEMBL4888484, “Replenishing the malaria drug discovery pipeline: Screening and hit evaluation of the MMV Hit Generation Library 1 (HGL1) against asexual blood stage Plasmodium falciparum ,using a nano luciferase reporter read-out” (2022)
Out of some 150,000 compounds screened, about 540 (0.36%) showed an effect of 50% or more. The list shows a part of the results.

The compounds below were run on Plasmodium falciparum (assay: Primary screen in NF54 nanoGlo assay, in single point, at 2uM, 72h; a lower Z score goes with more inhibition). Settings: timepoint 72 hour.
Assay type: functional, Erythrocyte

Row | SMILES | % Inhibition [%] | Z score
1 | C1=CCC(C2OCC(CN3CCCCC3)O2)CC1 (centres undefined) | -7 | 0.96
2 | N#Cc1ccc(NC2CC2)c(NC(=O)[C@H]2CC23CCCC3)c1 | -16 | 2.17
3 | C[C@H]1CN(C(=O)c2ccc(-c3ccccc3F)o2)CCS1(=O)=O | 5 | -0.74
4 | O=C(C[C@@H]1CCN2C[C@@H]1/C=C\COc1ccccc1CN(CC1CC1)CC2=O)NCCN1CCCC1 | -3 | 0.51
5 | O=C(NCC1(N2CCCC2)CCCC1)Nc1ccc2[nH]ncc2c1 | -1 | 0.16
6 | CC(C)n1cc(NC(=O)c2ccncc2Cl)cn1 | -9 | 1.57
7 | Cc1ncccc1C(=O)N[C@@H](C)C(C)(F)F | -11 | 2.16
8 | N#Cc1ccc(N2CCN3C(=O)NCC3C2)nc1N1CCN2C(=O)NCC2C1 (centres undefined) | 33 | -4.81
9 | COc1cccc(Cn2ncc3ccc(C(=O)NCc4ccc5c(c4)OCO5)cc32)c1 | -18 | 3.26
10 | CN(C[C@H]1CCCCO1)C(=O)Nc1cc2c(cc1N(C)C)n(C)c(=O)n2C | 11 | -1.02
11 | COC(=O)c1cc(-c2ccncc2)nn1C | -12 | 2.23
12 | Cn1cc(-c2ccc(CNC(=O)CC(C)(C)C)cn2)cn1 | 11 | -1.47
13 | Cc1cc(=O)n2ccn(Cc3nnc(C(C)C)s3)c2n1 | -18 | 2.34
14 | COc1ccc(C(N)=O)cc1NC1C2CCOC2C12CCC2 (centres undefined) | -7 | 0.64
15 | CCn1ncc2c1CCC[C@@H]2NC(=O)c1ccc(F)c2cccnc12 | -5 | 1
16 | CCCn1cc(N[C@@H](C)CC(C)(C)OC)cn1 | -13 | 1.9
17 | Cc1ccc(-n2cc(CN3[C@@H]4CC[C@H]3CNC(=O)C4)cn2)cc1C | 2 | -0.24
18 | Cc1ccccc1C1=NO[C@@H](CN(Cc2cccc(Cl)c2)C(=O)NC(C)(C)C)C1 | -15 | 2.22
19 | Cn1c(CNC(=O)C2CCC2)nc2c1CN(C(=O)c1ccc(C(F)(F)F)s1)CC2 | -3 | 0.32
20 | C[C@]1(C(=O)O)CCN(Cc2c[nH]nc2-c2cccc(Cl)c2)C1 | 11 | -1.42
21 | Cc1ccsc1CNC(=O)CNC1CCOCC1C (centres undefined) | -8 | 0.8

Row | SMILES | % Inhibition [%] | Z score
22 | COc1ccc(OCC(O)CN(CC(C)C)CC(O)COc2ccc(OC)cc2C(C)(C)C)c(C(C)(C)C)c1 (centres undefined) | 0 | 0.03
23 | O=C1N(CCC2CCCCC2)CCC[C@@]1(O)CN1CCCOCC1 | -7 | 1.27
24 | CCC(=O)N[C@@H]1CC(C(C)(C)NC(=O)CC)CC=C1C (some centres undefined) | -2 | 0.23
25 | COCCCn1cnnc1CNC(=O)c1nn(C)c(C)c1Cl | -28 | 2.8
26 | Cc1c([C@@H](NCC(=O)N2CCC(C(N)=O)CC2)C(C)C)oc2ccccc12 | -13 | 1.5
27 | O=C1CCC(Cc2ccccc2)=NN1C1CCC1 | -2 | 0.21
28 | Cc1oc2ncn(C)c(=O)c2c1C(=O)N1CCN(c2ccccc2F)CC1 | -10 | 1.58
29 | CC(CNC(=O)NCC1CCC(O)C1)c1cccs1 (centres undefined) | -11 | 1.46
30 | CCS(=O)(=O)NCC(C)(C)c1ccc(Br)cc1 | -8 | 1.35
31 | CN(C)Cc1nnc([C@H]2C[C@H](NC(=O)c3ccc(F)cc3F)C2)n1C | 6 | -1.08
32 | O=C(NCCCCC(F)(F)F)C1CC12CCc1ccccc12 (centres undefined) | -1 | 0.12
33 | COc1ccc(-c2nnsc2C(=O)NCc2ccncc2)cc1 | -5 | 0.8
34 | CCOC(=O)c1cc(O[C@@H](C)C(=O)N2CCc3ccccc3C2)cc(C(=O)OCC)c1 | -6 | 0.77
35 | Cc1cccc(-c2nc(CN(C)Cc3sccc3C)c(C)o2)c1 | -15 | 2.17
36 | CC[C@@H](C(=O)Nc1c(-c2cccc(F)c2F)nc2cc(C)ccn12)c1ccccc1 | -1 | 0.09
37 | O=C(c1ccn2ccnc2c1)N(CCc1cccc(F)c1)C1CCCC1 | -7 | 0.99
38 | CCC(=O)N[C@@H](C)C(=O)N1Cc2cnc(CC)nc2C1 | -13 | 2.48
39 | Nc1nc(CCC(=O)N[C@H]2CN(C3CCCC3)C[C@@H]2C2CC2)cs1 | 0 | -0.02
40 | CN(C)c1ccc(C2OCC3(CCC4(COC(c5ccc(N(C)C)cc5)OC4)O3)CO2)cc1 (centres undefined) | 37 | -4.71
41 | CC[C@H]1CN(C(=O)CON=C(N)c2ccc(F)c(F)c2)CCO1 | -1 | 0.13
42 | O=C(Nc1ccccc1)Nc1cc[n+]([O-])c(S(=O)(=O)c2ccccc2)c1 | -1 | 0.17
